Reference: publication PMC5884558
These are yes or no findings as the source states them, for the method shown. For part of these data: Binding seen in cells or lysates may run through a third protein. Some entries that bind do so weakly or less than the wild type. Sequences can lack the tags named with a protein. Values belong to the binder of their own block, whether it stands above or below them.

What was measured:
[1] = molecular target: T1, N-terminal 108 amino acid residues of TIE1 fused to GAL4-DBD (Arabidopsis thaliana) (UniProt Q6IDB0); assay: two-hybrid; yeast two-hybrid screening of an Arabidopsis transcription factor library; bait: N-terminal 108 residues of TIE1
T1 sequence: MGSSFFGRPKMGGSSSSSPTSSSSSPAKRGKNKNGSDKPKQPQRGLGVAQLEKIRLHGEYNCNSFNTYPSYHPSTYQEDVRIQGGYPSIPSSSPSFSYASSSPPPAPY

[2] = molecular target: T2, TIE3 (Arabidopsis thaliana) (UniProt Q9SHQ9); assay: two-hybrid; TIE2, TIE3 or TIE4 with BRC1; SD-Leu-Trp-His with 2.5 mM 3-amino-1,2,4 triazole
T2 sequence: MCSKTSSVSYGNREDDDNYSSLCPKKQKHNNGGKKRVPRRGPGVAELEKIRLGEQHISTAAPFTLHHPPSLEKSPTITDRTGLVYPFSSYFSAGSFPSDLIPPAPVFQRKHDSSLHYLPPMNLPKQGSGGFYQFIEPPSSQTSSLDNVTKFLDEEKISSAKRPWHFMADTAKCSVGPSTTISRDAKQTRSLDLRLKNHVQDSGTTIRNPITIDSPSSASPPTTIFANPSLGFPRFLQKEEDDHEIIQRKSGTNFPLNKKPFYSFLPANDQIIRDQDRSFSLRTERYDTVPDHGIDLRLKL

[3] = molecular target: T3, TIE4 (Arabidopsis thaliana) (UniProt F4IGU3); assay: as above
T3 sequence: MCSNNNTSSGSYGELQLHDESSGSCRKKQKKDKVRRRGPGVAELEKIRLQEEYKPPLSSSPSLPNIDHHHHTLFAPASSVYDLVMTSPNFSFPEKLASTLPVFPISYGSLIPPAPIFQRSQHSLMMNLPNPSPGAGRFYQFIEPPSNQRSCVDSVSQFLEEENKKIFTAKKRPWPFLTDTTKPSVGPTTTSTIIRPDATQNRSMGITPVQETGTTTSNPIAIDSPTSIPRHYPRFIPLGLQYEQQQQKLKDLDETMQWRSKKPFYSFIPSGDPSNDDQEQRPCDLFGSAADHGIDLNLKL

[4] = molecular target: T4, TIE2 (Arabidopsis thaliana) (UniProt Q84X40); assay: as above
T4 sequence: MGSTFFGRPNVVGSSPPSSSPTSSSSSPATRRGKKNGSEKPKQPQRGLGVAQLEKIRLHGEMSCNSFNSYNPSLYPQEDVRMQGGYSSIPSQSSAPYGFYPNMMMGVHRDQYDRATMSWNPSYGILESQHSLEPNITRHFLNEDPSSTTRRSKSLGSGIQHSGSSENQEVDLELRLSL

[5] = molecular target: T1, N-terminal 108 amino acid residues of TIE1 fused to GAL4-DBD (Arabidopsis thaliana); assay: two-hybrid; bait DBD-TIE1N in pDEST32, preys AD-BRC1/BRC2 in pDEST22; yeast AH109; SD-Leu-Trp-His with 5 mM 3-AT
[6] = molecular target: T1, N-terminal 108 amino acid residues of TIE1 fused to GAL4-DBD (Arabidopsis thaliana); assay: two-hybrid; bait TIE1(1-108) in pGBKT7-GW, BRC1 fragments and mutants in pGADT7-GW; yeast AH109; medium without Leu, Trp and His with 5 mM 3-AT
[7] = molecular target: T5, BRC1 fused to the MALTOSE BINDING PROTEIN (Arabidopsis thaliana) (UniProt A1YKT1); assay: pull-down; MBP-BRC1 or MBP mixed with TIE1-His, Amylose resin, 4°C 3 h; 20 mM Tris-HCl pH 7.4, 200 mM NaCl, 1 mM EDTA; six washes; anti-His immunoblot
T5 sequence: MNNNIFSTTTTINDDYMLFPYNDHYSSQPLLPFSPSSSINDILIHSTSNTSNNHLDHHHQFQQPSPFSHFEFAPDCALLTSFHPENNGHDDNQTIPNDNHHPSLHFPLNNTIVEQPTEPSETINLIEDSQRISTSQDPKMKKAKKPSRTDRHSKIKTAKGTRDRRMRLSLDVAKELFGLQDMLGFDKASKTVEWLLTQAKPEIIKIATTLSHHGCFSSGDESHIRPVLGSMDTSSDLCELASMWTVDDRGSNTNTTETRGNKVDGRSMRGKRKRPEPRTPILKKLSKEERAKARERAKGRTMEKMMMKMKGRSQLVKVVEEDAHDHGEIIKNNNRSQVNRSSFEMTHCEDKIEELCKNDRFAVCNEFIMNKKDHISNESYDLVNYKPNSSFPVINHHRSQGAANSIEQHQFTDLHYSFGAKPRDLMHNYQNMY

[8] = molecular target: T6, BRC1-GFP (Arabidopsis thaliana) (UniProt A1YKT1); assay: FRET or BRET; acceptor photobleaching FRET (APB-FRET), GFP donor and mCherry acceptor, transient in N. benthamiana leaves
T6 sequence: T5 sequence

[9] = molecular target: T7, cLUC-BRC1 (Arabidopsis thaliana) (UniProt A1YKT1); assay: split reporter; firefly luciferase complementation imaging (LCI): cLUC-BRC1 and TIE1-nLUC co-infiltrated in N. benthamiana leaves; luciferin, CCD imaging
T7 sequence: T5 sequence

[10] = molecular target: T8, cCFP-BRC1 (Arabidopsis thaliana) (UniProt A1YKT1); assay: split reporter; BiFC: nYFP-TIE1 and cCFP-BRC1 co-infiltrated in N. benthamiana leaves; confocal microscopy
T8 sequence: T5 sequence

[11] = molecular target: T9, BRC1-mCherry (Arabidopsis thaliana) (UniProt A1YKT1); assay: FRET or BRET; acceptor photobleaching FRET (APB-FRET), GFP donor and mCherry acceptor, transient in N. benthamiana leaves
T9 sequence: T5 sequence

binding [1]: binds
binding [2]: no binding
binding [3]: binds
binding [4]: binds
binding [5]: binds
binding [6]: binds
B1: BRANCHED1 (BRC1) fused to GAL4-AD (protein, UniProt A1YKT1 1-433)
chain: T5 sequence

binding [7]: binds
B2: His-tagged TIE1 (protein, UniProt Q6IDB0 1-193)
chain: MGSSFFGRPKMGGSSSSSPTSSSSSPAKRGKNKNGSDKPKQPQRGLGVAQLEKIRLHGEYNCNSFNTYPSYHPSTYQEDVRIQGGYPSIPSSSPSFSYASSSPPPAPYGFHPNMMMNANNDQYERTTIRYGDSQPHRAPSWNPSYGILESQHFVEPNTTRHFLHEDQRNISLGSGIQNFETSEANELDLELRL

binding [8]: binds
B3: TIE1-mCherry (protein, UniProt Q6IDB0 1-193)
chain: B2 chain

binding [9]: binds
B4: TIE1-nLUC (protein, UniProt Q6IDB0 1-193)
chain: B2 chain

binding [10]: binds
B5: nYFP-TIE1 (protein, UniProt Q6IDB0 1-193)
chain: B2 chain

binding [11]: binds
B6: TIE1-GFP (protein, UniProt Q6IDB0 1-193)
chain: B2 chain

binding [6]: binds
B7: TCP domain of BRC1 fused to GAL4-AD (domain or fragment, UniProt A1YKT1 148-206)
chain: RTDRHSKIKTAKGTRDRRMRLSLDVAKELFGLQDMLGFDKASKTVEWLLTQAKPEIIKI
